In all, about 110,000 compounds were measured (“z-score”: median about -0.1, highest 2% from about 2 on). Some of the results follow. The source made the active and inactive calls.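 The calls were made as follows: active = z-score in the third read window above 3 or below -3; inactive = the rest.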

This note sets out measurements from PubChem BioAssay AID488969 (Vanderbilt High Throughput Screening Facility, 2010).

For this experiment, the target named is Metabotropic glutamate receptor 8 (Rattus norvegicus) (UniProt P70579). Put plainly: rat mGluR8 modulators via GIRK flux, primary screen, cell-based, thallium flux, HTS (AID 488969). Particulars: HEK293 rat mGluR8, GIRK (G protein-gated inwardly rectifying potassium channel) thallium flux, FluoZin2; at 10 µM; stronger effect = higher value; submaximal glutamate (EC20) added with thallium.
Chain of UniProt P70579 (P70579 whole entry, looked up): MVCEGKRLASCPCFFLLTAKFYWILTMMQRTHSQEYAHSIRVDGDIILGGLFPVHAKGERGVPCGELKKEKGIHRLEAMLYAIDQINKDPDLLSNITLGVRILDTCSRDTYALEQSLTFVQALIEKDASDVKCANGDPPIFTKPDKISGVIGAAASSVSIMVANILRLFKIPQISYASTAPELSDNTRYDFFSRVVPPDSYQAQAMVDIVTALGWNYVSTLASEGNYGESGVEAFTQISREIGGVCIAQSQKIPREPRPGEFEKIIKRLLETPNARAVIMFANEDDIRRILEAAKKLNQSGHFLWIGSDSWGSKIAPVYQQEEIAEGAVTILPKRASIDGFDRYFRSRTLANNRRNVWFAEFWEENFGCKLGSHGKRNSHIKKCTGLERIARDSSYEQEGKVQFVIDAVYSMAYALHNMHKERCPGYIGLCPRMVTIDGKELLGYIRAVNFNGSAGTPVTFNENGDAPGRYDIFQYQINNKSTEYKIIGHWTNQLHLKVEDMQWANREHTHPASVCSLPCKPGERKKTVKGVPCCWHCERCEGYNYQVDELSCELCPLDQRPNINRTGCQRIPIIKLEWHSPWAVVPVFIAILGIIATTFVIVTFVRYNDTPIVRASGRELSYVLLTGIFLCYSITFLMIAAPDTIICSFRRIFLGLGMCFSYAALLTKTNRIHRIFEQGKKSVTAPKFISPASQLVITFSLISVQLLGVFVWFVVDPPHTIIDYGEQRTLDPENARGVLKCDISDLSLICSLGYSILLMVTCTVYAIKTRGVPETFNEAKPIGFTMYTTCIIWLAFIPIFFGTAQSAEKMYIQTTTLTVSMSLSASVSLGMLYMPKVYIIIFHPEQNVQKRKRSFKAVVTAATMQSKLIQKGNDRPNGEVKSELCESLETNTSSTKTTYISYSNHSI
Turning to `Cc1ccc(N(C(=O)C2CCC(=O)N2)C2(C(=O)NC3CCCCC3)CCCCC2)cc1` (stereo not given), the z-score was found to be 0.599.

In turn, `CC1(c2ccccc2)CC2CC(c3ccccc3)N1O2` (stereo not given) gave a z-score of -0.206.

The molecule `CCCOc1cc(C)nc(-c2ccccc2O)n1` showed a z-score of -0.181.

Regarding `O=C(CCSc1ccc(Cl)cc1)NC1CCCCC1`, the z-score is -0.109.

Regarding `Cc1cc(=O)n2c3c(sc2n1)C(=O)N(Cc1ccccc1)C3=O`, the z-score is -0.193.

For the molecule `Cc1cc(C)cc(-n2c(C)cc(C(=S)N3CCOCC3)c2C)c1`, the z-score came out at 0.00785.

`O=S(=O)(N1CCCCC1)n1nnc2ccccc21`: the z-score is 0.024.

For the molecule `Cc1ccc(C)c(OCCCCn2cnc3ccccc3c2=O)c1`, the z-score is -0.208.

On to `CC(=O)c1cnc(Nc2nc(C)c3ccc(C)cc3n2)nc1C`, for which the z-score was -0.43.

Turning to `Cc1cc(NC(=O)C2CCCN(S(=O)(=O)c3c(C)noc3C)C2)no1` (stereo not given), the z-score turned out to be 0.708.

Turning to `Cc1cc(C)n2nc(SCC(=O)Nc3c(C)n(C)n(-c4ccccc4)c3=O)nc2n1`, the z-score was -0.229.

With `COc1ccc(-c2cc(C)nc3nc(N)nn23)cc1`, the z-score is -0.0092.

`Cc1cc(Oc2ccccc2)nc(SCC(=O)Nc2ccc(Cl)c(Cl)c2)n1` registered a z-score of 0.266.

For the molecule `COc1ccccc1CNC(=S)NC1CCCC1`, the z-score was -0.0815.

As to `CCOC(=O)N1CCN(CC(=O)Nc2ccc([N+](=O)[O-])cc2C(=O)Nc2ccccc2F)CC1`, the z-score was -0.485.

Molecule `CCOC(=O)c1c(NC(=O)CSc2nnc(C)c(=O)[nH]2)sc2c1CCCC2` came in with a z-score of -0.522.

Turning to `CCn1c(C)c(C(C)=O)c(N2CCN(c3ccc(F)cc3)CC2)nc1=S`, the z-score is -0.236.

In turn, `CC(=O)Nc1cc2ccc(OC(C)=O)cc2oc1=O` gave a z-score of -0.336.

Take `CCCCSC1(SCCCC)N=C(N)C2(C#N)C(c3ccccc3)NC(C)=C(C)C12C#N` (stereo not given): the z-score is -0.0616.

For `O=C(/C=C/c1ccc(Br)cc1)NC(=S)Nc1ccc(S(=O)(=O)Nc2nccs2)cc1`, the z-score is -0.399.

`O=C(N/N=C/c1cccc([N+](=O)[O-])c1)c1ccc(CN2CCOCC2)cc1` gave a z-score of 0.56.

As for `Cc1ccc(-n2nc(C)c3c(C)c(CCC(=O)NCc4ccccc4)c(C)nc32)cc1`, the z-score is 0.0582.

Molecule `CCOC(=O)C1CCN(C(=O)COc2cccc(C)c2)CC1` returned a z-score of -0.0116.

`O=C1c2cccc3cccc(c23)C(=O)N1c1nccs1` showed a z-score of -0.239.

Molecule `CCOC(=O)c1c(N)sc2c(NC(C)=O)cccc12` yielded a z-score of 0.677.

`COc1cccc(Nc2nc3ccccc3n3cnnc23)c1` showed a z-score of -0.251.

`COc1ccc2oc(-c3ccc(NC(=O)c4ccc(N5CCOCC5)c([N+](=O)[O-])c4)cc3)nc2c1` registered a z-score of -0.0334.

`CC1Cc2ccccc2N1C(=O)c1ccc(N2CCCC2)c([N+](=O)[O-])c1` (stereo not given) registered a z-score of -0.202.

On to `N#Cc1cc2c(nc1SCc1ccccc1)CCC2`, for which the z-score is 0.359.

The molecule `CC(C)Cn1c(-c2ccccc2)nc(=S)c2c1CCCC2` came in with a z-score of 0.28.

Molecule `Cc1cnn(-c2cc(N/N=C/c3ccccc3)ncn2)c1` registered a z-score of -0.0535.

Turning to `Cc1cccc(Nc2nnc(SCC(=O)NC3CCCc4ccccc43)s2)c1C` (stereo not given), the z-score is -0.282.

`C/C(=N\NC(=O)c1cc(-c2cccc([N+](=O)[O-])c2)n[nH]1)c1ccccc1O`: the z-score was -0.0279.

`CCC(=O)NC(=S)Nc1ccc(S(=O)(=O)N2CCN(C)CC2)cc1` yielded a z-score of -0.0523.

In turn, `COc1ccc(-c2cc(C(=O)OC(C)C(=O)Nc3c(C)n(C)n(-c4ccccc4)c3=O)c3ccccc3n2)cc1` (stereo not given) returned a z-score of -0.604.

The molecule `CCN=C(NCC)SC1CC(=O)N(c2ccc(OC)cc2)C1=O` (stereo not given) came in with a z-score of -0.428.

`Cn1c(=O)c2ncn(CC(=O)Nc3ccc(N4CCOCC4)cc3)c2n(C)c1=O` returned a z-score of 0.0617.

Regarding `O=C(CSc1ncnc2c1sc1ccccc12)Nc1ccc(Br)cc1`, the z-score was -0.0878.

Turning to `Cc1cccc(C)c1OCC(O)CNS(=O)(=O)c1ccccc1C(=O)N1CCOCC1` (stereo not given), the z-score was -0.302.

Consider `O=C(CC1CCCCC1)NCc1ccccn1`, for which the z-score was -0.377.

In turn, `O=C(NNC(=O)c1cccs1)Nc1cccc(Cl)c1` yielded a z-score of 1.31.

`Cc1cc(=O)oc2cc(OC(C)C(=O)Nc3ccc(N4CCOCC4)cc3)ccc12` (stereo not given) gave a z-score of 0.0147.

Consider `CCCOc1cc(C)c(S(=O)(=O)N2CCN(C)CC2)cc1C`, for which the z-score stood at 0.0948.

On to `Cc1nc2cc(NC(=O)NCc3ccccc3)ccc2o1`, for which the z-score came to 0.0271.

Consider `CCOCCCNS(=O)(=O)c1ccc2c(c1)OCCO2`, for which the z-score is -0.138.

Molecule `Cc1cc(C(C)(C)C)cc(S(=O)(=O)NCCO)c1C` showed a z-score of -0.2.

Regarding `CCC(C)NC(=O)c1ccc(CSCc2cccc(F)c2)o1` (stereo not given), the z-score was -0.863.

Regarding `CCNC(=O)CCc1nc(-c2ccc(C(C)(C)C)cc2)no1`, the z-score was determined as 0.111.

On to `O=C(CSc1nnc(CNc2ccc(F)cc2)n1-c1ccccc1)N1CCOCC1`, for which the z-score is -0.00832.

`CC(C)CCNC(=O)NC(=O)COc1ncnc2sccc12` gave a z-score of -0.533.

The molecule `Cc1ccccc1N/C(SCc1cccc(Br)c1)=C(/C#N)C(N)=O` returned a z-score of -0.127.

In turn, `O=C1NC2(CCCCC2)NN1c1ccccc1` yielded a z-score of -0.125.

With `Cc1ccc(S(=O)(=O)CNC(=S)c2cccc(Cl)c2)cc1`, the z-score worked out at 0.543.

Regarding `CCOC(=O)c1cnc(SCc2ccc(C(C)(C)C)cc2)nc1N`, the z-score came to 0.064.

As for `O=C(NCCCc1ccccc1)Nc1cccc(Cl)c1`, the z-score came to 2.01.

Turning to `COc1ccc(S(=O)(=O)N2CCC(C(=O)N3CCCCC3)CC2)cc1Cl`, the z-score came out at 0.233.

As for `Cc1ccc(S(=O)(=O)Nn2c(C)ccc2C)cc1`, the z-score was determined as 0.267.

In turn, `CCNC(=O)C(=O)NCC1OCCCN1S(=O)(=O)c1cccs1` (stereo not given) gave a z-score of -0.0892.

With `Cc1cccc(NC(=S)NCc2ccc3c(c2)OCO3)c1`, the z-score is -0.0322.

`CCCC(=O)Nc1nnc(CCN2CCCCC2)s1` gave a z-score of -0.221.

`COc1ccccc1NC(=O)CN(C)S(=O)(=O)c1ccc2c(c1)CCC(=O)N2` showed a z-score of -0.111.

`Cc1nc2ccccc2c2c1C(=O)N(C1CCCCCCC1)C2=O` displayed a z-score of -0.105.

On to `O=C(NC1=NCCS1)c1cc(-c2cccc(Br)c2)nc2ccccc12`, for which the z-score is -0.204.

On to `Cc1ccc(N=Cc2sc(O)c3ccccc23)c(C)c1`, for which the z-score is -0.00761.

With `O=c1c2[nH]c3ccccc3c2ncn1CCCn1ccnc1`, the z-score was 0.367.

The molecule `Cc1c(C)n(C(=O)CN2CCN(c3ccccc3)CC2)c2ccccc12` showed a z-score of 0.000165.

Take `O=C1N=C2SCCN2/C1=C\c1ccccc1Cl`: the z-score is -0.167.

Regarding `CC1CC(C)CN(C(=O)CNS(=O)(=O)c2ccc(Br)s2)C1` (stereo not given), the z-score was -0.102.

In turn, `COc1ccc(OC)c(Nc2nc(C3CC3)nc3c2nnn3Cc2ccccc2)c1` returned a z-score of -0.135.

Regarding `COc1cccc(-n2c(SCC(N)=O)nnc2-c2c[nH]c3ccccc23)c1`, the z-score is -0.478.

For `CN=c1scc(-c2ccc(Cl)cc2)n1C`, the z-score is 0.283.

For the molecule `COc1ccccc1/C=N/NC(=O)C1=NNC(c2ccccc2)(c2ccccc2)C1`, the z-score is -0.64.

`CCCCCCCNC(=O)c1ccc(N2CCC3(CC2)OCCO3)c([N+](=O)[O-])c1` yielded a z-score of -0.646.

Molecule `CCOC(=O)c1cc2c(nc1NC(=S)Nc1ccccc1)CC(C)(C)OC2` showed a z-score of -0.292.

With `O=C(Nc1ccc2snnc2c1)N1CCSCC1`, the z-score was 0.442.

For `Oc1ccc(-c2csc(NCc3ccco3)n2)cc1`, the z-score is -2.16.

As to `Cn1cc(C(=O)NCN2CCCCC2)c2ccccc21`, the z-score was -0.153.

For `Cc1nn(CCc2n[nH]c(=S)n2C2CCCCC2)c(C)c1Br`, the z-score was -0.451.

Molecule `COc1ccc(CCC(=O)N2CCc3ccccc32)cc1` registered a z-score of 0.333.

In the case of `O=C1C=C(NCc2ccc(Cl)c(Cl)c2)CC1`, the z-score was -0.436.

`CC(C)c1ccccc1NC(=S)NCc1ccccc1F`: the z-score was -0.148.

`COc1ccc(-c2oc(NC(=O)c3ccc(C)cc3)c(C#N)c2-c2ccc(OC)cc2)cc1` showed a z-score of -0.19.

For `CCn1c(-c2ccccc2)c[nH]c1=S`, the z-score came out at 0.254.

The molecule `O=C1C2CCCN2c2ccc(S(=O)(=O)N3CCOCC3)cc2N1Cc1ccccc1F` (stereo not given) came in with a z-score of 1.76.

Regarding `Cc1c(C(=O)Nc2ccc3c(c2)OCO3)sc2ncn(CC(=O)N3CC(C)CC(C)C3)c(=O)c12` (stereo not given), the z-score is -0.047.

For `OC(c1ccc(OCc2ccccc2)cc1)c1nnc(-c2ccccc2)o1` (stereo not given), the z-score is -0.346.

Molecule `O=C(CSc1nc2ccccc2c(=O)[nH]1)NCc1ccc(Cl)cc1` registered a z-score of 0.173.

As for `COc1cccc(/C(O)=C2/C(=O)C(=O)N(Cc3cccnc3)C2c2ccco2)c1` (stereo not given), the z-score is -0.0278.

`COc1ccc(N2CSC3=C(C#N)C(c4cc(OC)c(OC)cc4OC)CC(=O)N3C2)c(OC)c1` (stereo not given) had a z-score of -0.516.

In the case of `N#CC1=C2SCN(c3ccccc3)CN2C(=O)CC1c1c(Cl)cccc1Cl` (stereo not given), the z-score is -0.113.

`Cc1ccc(-c2nc(N=Nc3ccc(O)cc3)n[nH]2)cc1` gave a z-score of -0.269.

Molecule `COC(=O)c1ccc(NC(=O)c2ccc(CN3CCOCC3)cc2)cc1` yielded a z-score of 0.716.

As for `CC1C(=O)C(C)C(c2cccs2)NC1c1cccs1` (stereo not given), the z-score was -0.819.

On to `O=C(COC(=O)c1ccc(CNS(=O)(=O)c2ccc(F)c(Cl)c2)cc1)NC1CCCCCCC1`, for which the z-score was -0.299.

On to `O=C(Nc1cccc(Cl)c1Cl)C1CC(=O)N(c2ccc(Br)cc2)C1` (stereo not given), for which the z-score is 0.289.

Consider `CC(C)NC(=O)c1cc(-n2cnnc2)ccc1Cl`, for which the z-score was -0.0712.

`O=C(O)c1ccc(NC(=O)C2CCCCC2)cc1`: the z-score came out at 0.0879.

The molecule `COc1ccc(Cn2cnc3sccc3c2=O)cc1` showed a z-score of -0.167.

As to `Cc1c(C(=O)O)sc(=S)n1CCOc1ccccc1`, the z-score is -0.832.

In the case of `Cc1cccc(NS(=O)(=O)Cc2ccccc2)n1`, the z-score stood at 0.436.

Take `CC(=O)Nc1ccc(NC(=O)CN(c2ccc(F)cc2)S(=O)(=O)c2ccc3c(c2)OCCO3)cc1`: the z-score came to 0.203.

`CNCc1ccccc1Sc1cc(O)ccc1O` had a z-score of 0.0226.

Molecule `CCCc1c(C)[nH]c2ccc(NC(C)=O)cc2c1=O` registered a z-score of -0.379.

Take `CCOC(=O)C1CN(S(=O)(=O)c2ccc(C)cc2)C1`: the z-score is -0.116.

With `CCCC(C(=O)N1CCOCC1)N1C(=O)C2C3C=CC(C3)C2C1=O` (stereo not given), the z-score was found to be 0.0586.

`COc1cc(C2CC(=O)C=C(O)C2)cc(OC)c1OC` (stereo not given) came in with a z-score of -0.099.

On to `COCCNC(C(=O)Nc1ccc([N+](=O)[O-])cc1Br)c1ccccc1` (stereo not given), for which the z-score came out at 0.633.

Molecule `c1ccc2c(c1)nc(-c1ccncc1)n1nnnc21` came in with a z-score of -0.126.

`O=C(CSc1nnc2ccccn12)Nc1nsc(-c2ccccc2)n1`: the z-score is active: 3.63.

Turning to `O=C(CSc1nnc(-c2cccs2)o1)N1CCc2ccccc21`, the z-score was -0.479.

`CNC(=O)C1Cc2ccccc2CN1S(=O)(=O)c1cccs1` (stereo not given) returned a z-score of -0.206.

`COc1ccc(C(CNC(=O)c2ccc(N3CCCC3=O)cc2)N(C)C)cc1` (stereo not given) had a z-score of 0.151.

`CCn1c(=N)n(CC(O)COc2cccc(C)c2)c2ccccc21` (stereo not given) returned a z-score of 0.778.

For `O=C(Nc1ccccc1N1CCOCC1)c1ccc2ccccc2n1`, the z-score stood at 0.337.

`CCOc1cc(/C=N/NC(=O)COc2ccc(Cl)cc2)ccc1OS(=O)(=O)c1ccccc1` gave a z-score of -0.111.
